Data published in article PMC9856372.
No constants are given. Whether binding was seen depends on the method and setting. In cells and extracts the contact can be indirect. Some binding calls cover weakened binding; strength is not graded here. Sequences can lack the tags named with a protein.

What was measured:
myc-tagged PTCH1(1-1308) = target: T1, myc-tagged PTCH1(1-1308) (UniProt Q13635); assay: co-IP; HEK293 cells co-transfected with myc-PTCH1 variants and ATG101-FLAG; PTCH1 variants immunoprecipitated by the myc tag, immunoblotting; lysis buffer 50 mM Tris HCl pH 7.5, 150 mM NaCl, 1% NP-40, 0.05% sodium deoxycholate, 4 °C
T1 sequence: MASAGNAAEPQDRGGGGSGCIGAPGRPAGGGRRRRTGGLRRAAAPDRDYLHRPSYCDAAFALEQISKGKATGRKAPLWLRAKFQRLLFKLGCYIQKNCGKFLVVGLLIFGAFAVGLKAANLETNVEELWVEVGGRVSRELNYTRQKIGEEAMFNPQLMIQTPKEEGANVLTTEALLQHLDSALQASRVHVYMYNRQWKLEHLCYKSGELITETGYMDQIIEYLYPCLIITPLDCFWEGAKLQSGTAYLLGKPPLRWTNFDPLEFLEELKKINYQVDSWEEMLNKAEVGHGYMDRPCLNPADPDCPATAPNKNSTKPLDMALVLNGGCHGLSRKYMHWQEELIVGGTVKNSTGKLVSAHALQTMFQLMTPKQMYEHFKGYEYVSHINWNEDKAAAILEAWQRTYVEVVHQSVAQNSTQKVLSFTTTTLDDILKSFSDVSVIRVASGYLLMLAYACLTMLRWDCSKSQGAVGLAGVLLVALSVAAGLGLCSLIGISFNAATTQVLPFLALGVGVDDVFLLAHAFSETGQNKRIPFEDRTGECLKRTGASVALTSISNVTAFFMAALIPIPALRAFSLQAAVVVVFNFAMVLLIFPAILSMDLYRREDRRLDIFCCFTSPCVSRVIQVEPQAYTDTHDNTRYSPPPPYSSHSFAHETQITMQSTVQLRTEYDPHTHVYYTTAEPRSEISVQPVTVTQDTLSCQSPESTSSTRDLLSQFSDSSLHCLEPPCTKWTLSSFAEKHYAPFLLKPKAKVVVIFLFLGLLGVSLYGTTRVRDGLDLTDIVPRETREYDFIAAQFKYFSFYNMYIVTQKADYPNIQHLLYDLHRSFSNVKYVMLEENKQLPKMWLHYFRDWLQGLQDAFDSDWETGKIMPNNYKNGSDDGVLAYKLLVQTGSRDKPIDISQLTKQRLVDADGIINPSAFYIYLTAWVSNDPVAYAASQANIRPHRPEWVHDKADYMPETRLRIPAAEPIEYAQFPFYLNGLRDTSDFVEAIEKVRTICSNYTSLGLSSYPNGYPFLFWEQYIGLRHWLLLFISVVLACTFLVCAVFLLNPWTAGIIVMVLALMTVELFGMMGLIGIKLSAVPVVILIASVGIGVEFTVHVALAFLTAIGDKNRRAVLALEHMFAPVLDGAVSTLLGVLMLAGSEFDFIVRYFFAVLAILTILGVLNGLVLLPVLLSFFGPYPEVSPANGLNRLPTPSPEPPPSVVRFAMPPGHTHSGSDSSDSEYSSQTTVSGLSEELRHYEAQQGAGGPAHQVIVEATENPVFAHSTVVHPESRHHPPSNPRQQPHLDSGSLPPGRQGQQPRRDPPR

[1] = target: T2, myc-tagged wild-type PTCH1(1-1447) (UniProt Q13635); assay: as above
T2 sequence: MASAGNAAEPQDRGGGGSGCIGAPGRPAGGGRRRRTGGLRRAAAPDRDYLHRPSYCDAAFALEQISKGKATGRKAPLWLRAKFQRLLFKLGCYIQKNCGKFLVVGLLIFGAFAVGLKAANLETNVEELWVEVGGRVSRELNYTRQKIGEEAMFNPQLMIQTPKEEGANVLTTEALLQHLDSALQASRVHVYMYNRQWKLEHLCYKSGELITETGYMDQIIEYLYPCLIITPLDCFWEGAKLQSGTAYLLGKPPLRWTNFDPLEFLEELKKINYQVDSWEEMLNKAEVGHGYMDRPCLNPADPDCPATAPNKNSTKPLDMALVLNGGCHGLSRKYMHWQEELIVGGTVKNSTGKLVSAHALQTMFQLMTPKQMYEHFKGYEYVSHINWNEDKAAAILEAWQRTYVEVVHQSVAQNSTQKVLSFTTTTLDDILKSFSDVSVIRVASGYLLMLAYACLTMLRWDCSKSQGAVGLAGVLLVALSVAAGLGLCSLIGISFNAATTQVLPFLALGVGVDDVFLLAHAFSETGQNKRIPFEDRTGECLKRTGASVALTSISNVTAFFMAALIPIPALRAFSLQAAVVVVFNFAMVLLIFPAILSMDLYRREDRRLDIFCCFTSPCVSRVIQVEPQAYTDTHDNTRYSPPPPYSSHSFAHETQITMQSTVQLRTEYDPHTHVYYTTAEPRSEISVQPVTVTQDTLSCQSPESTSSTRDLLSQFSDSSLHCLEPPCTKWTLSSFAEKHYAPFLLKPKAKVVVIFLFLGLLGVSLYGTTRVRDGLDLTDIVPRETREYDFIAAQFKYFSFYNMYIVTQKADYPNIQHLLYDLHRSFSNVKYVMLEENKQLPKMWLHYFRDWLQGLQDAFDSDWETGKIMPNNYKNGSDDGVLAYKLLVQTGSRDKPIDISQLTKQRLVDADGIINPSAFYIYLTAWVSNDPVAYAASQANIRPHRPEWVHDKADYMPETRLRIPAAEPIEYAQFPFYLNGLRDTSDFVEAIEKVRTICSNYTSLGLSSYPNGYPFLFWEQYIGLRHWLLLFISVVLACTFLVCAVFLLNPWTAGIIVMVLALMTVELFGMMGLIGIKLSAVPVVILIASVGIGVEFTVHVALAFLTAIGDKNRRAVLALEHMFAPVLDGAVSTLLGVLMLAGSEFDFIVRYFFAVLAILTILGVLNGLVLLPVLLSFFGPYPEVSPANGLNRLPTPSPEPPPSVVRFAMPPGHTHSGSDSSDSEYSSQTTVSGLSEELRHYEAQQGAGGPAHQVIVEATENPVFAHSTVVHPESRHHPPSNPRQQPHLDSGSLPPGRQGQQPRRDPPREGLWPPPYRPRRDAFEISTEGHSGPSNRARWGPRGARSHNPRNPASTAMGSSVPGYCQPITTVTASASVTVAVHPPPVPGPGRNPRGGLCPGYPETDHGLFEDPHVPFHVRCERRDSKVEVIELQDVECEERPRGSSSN

B1: ATG101-FLAG (protein, UniProt Q9BSB4 1-218)
chain: MNCRSEVLEVSVEGRQVEEAMLAVLHTVLLHRSTGKFHYKKEGTYSIGTVGTQDVDCDFIDFTYVRVSSEELDRALRKVVGEFKDALRNSGGDGLGQMSLEFYQKKKSRWPFSDECIPWEVWTVKVHVVALATEQERQICREKVGEKLCEKIINIVEVMNRHEYLPKMPTQSEVDNVFDTGLRDVQPYLYKISFQITDALGTSVTTTMRRLIKDTLAL
myc-tagged PTCH1(1-1308)
  binding: no binding
[1]
  binding: binds
